Measurements published in ChEMBL document CHEMBL1157539, “Thousands of chemical starting points for antimalarial lead identification” (Nature, 2010).
Values joined by “and” are separate entries in the source; they are usually repeats but may differ in a detail not shown here. Equal entries are not always repeated. Whole data set: some 13,000 compounds, median “IFI” near 4, cut for the highest 2% near 17. This is one part of the list.

test: GSK_TCMDC: Inhibition Frequency Index (IFI). The number of non-kinase HTS assays where a compound showed > 50 % inhibition, expressed as a percentage of the number of such assays in which the compound was tested (-0 is zero); assay type: functional

Compound	IFI
COc1cc(C)nc2ccc(NC(=O)c3cc(C(F)(F)F)cc(C(F)(F)F)c3)cc12	0.7%
Fc1ccc(OC2CN(c3nccc(NCc4ccccc4Cl)n3)C2)cc1	8%
Cc1ccccc1C1CCN(C2CCC(NC(=O)/C=C/c3ccc(Cl)cc3)CC2)CC1 (configuration not stated)	16.7%
COc1ccc(CNC(=O)NC2CCN(c3ccnc(Nc4ccc(F)cc4)n3)CC2)cc1	1.52%
c1cc(CN2CCN(CCN3CCOCC3)CC2)cc(-c2cccc(-c3nc4ccccc4[nH]3)c2)c1	-0%
O=C(Nc1ccc2[nH]c(-c3ccc4nc(NC(=O)C5CCCCC5)sc4c3)nc2c1)C1CCCCC1	5%
CC1(C)NC(N)=NC(=N)N1OCCCCCCOc1ccc(Cl)c2ccccc12	17%
CC(C)Sc1nc2c(c(=O)n1CCc1ccccc1)C1(CCCC1)Cc1ccccc1-2	0%
Cc1cc(N[C@@H](Cc2ccccc2)C(=O)NCCOc2ccccc2)nc(NCCOc2ccccc2)n1	24.4%
COc1c(C2CCN(CCCCNC(=O)c3oc(-c4ccc(Cl)cc4)cc3CO)CC2)ccc2c1CCCC2	9.92%
COc1ccc(CC2(c3ccc(F)cc3)N=C(N)N(CCCc3ccc(F)c(F)c3)C2=O)cc1 (configuration not stated)	20%
O=C(C=Cc1ccc(Cl)c(Cl)c1)NC1CCN(CCc2ccccc2)CC1	1.35%
Cc1cc(=O)c(-c2ccc(Oc3cccc(Cl)c3)cc2)c(C)[nH]1	1.41%
Cc1cccc2nc(-c3ccc(-c4ccc(CNC(C)C)cc4)cc3)[nH]c12	9.52%
COc1ccc2c(C)cc(NCCCN(C)C)nc2c1	1.85%
CC[C@H](C)CNC(=O)c1cncc(-c2ccc(CNCCCc3ccccc3)cc2)c1	6.35%
Cc1cc(OCc2ccccc2)c(OCc2ccccc2)cc1C(O)CN(C)Cc1ccccc1 (configuration not stated)	3.55%
COc1ccc(-c2nc(NC(=O)Cc3coc4cc(OC)ccc34)sc2C)cc1	0.81%
Cc1cnc(NCCc2ccc(F)cc2)nc1NCCC(=O)Nc1ccccc1	5%
CC(CN(C)C)C(=O)Nc1ccc(-c2cccc(-c3nc4ccccc4[nH]3)c2)cc1 (configuration not stated)	2.65%
CC1CCCN(C(=O)c2cc(-c3ccccn3)nc3c(Cl)cccc23)C1 (configuration not stated)	1.59%
CC(C)CSc1cc(C(=O)Nc2cc(Cl)ccc2O)ccn1	12%
O=C(Nc1ccc(C(F)(F)F)cc1)NC1CCN(c2ccnc3cc(Cl)ccc23)CC1	10.8%

Compound	IFI
CN1CCCc2ccc(NC(=O)Nc3ccc(Cl)c(Cl)c3)cc2C1	3.45%
Cc1cccc2nc(-c3ccc(-c4cccc(CN5CCC(CO)CC5)c4)s3)[nH]c12	1.98%
COc1ccc(C=NN=c2cc(C)[nH]c3ccc(C)cc23)c2ccccc12	7.09%
COc1ccc2nc(-c3cc(-c4ccc(NC(C)=O)cc4)cnc3N)[nH]c2c1	10.7%
O=C(Nc1ccc(OC2CCN(Cc3ccc(F)cc3)C2)c(Cl)c1)c1ccsc1 (configuration not stated)	4.55%
CC(C)NCc1ccc(-c2cccc(NC(=O)c3ccc(F)cc3)c2)cc1	-0%
O=C(NCCNc1nc(NCCNC(=O)Nc2ccccc2)c2ccc(=O)n(-c3c(F)cccc3F)c2n1)Nc1ccccc1	0%
CN1CCN(c2ccnc3ccc(NC(=O)Nc4ccc(-c5ccncc5)c(C(F)(F)F)c4)cc23)CC1	0.77%
Fc1cc(Cl)ccc1Nc1ccnc2cc(-c3ccc(CN4CCNCC4)o3)ccc12	6.67%
Cc1ccc(-c2cc(C(=O)Nc3ccc(S(=O)(=O)N4CCOCC4)cc3)[nH]n2)c(O)c1C	6.8%
COc1ccc(-c2cnc3[nH]cc(-c4ccncc4)c3c2)cc1OC	13.5%
Cc1ccc(NC(=O)NC2CCN(c3ccnc4cc(Cl)ccc34)CC2)cc1	1.56%
COc1ccc(NC(=O)C2c3ccccc3C(=O)N(C3CCCC3)C2c2cccs2)cc1 (configuration not stated)	2.38%
O=C(NCc1cccs1)[C@H](Cc1ccccc1)Nc1ccnc(NCCc2ccc(F)cc2)n1	9.3%
CCCC(CNCc1cccc(OCC)c1)CNc1cc(=O)c2ccccc2[nH]1 (configuration not stated)	3.62%
COc1cc2nc(NCc3ccccc3)nc(NCc3ccccc3)c2cc1OC	7.56%
O=C(NCCCN1CCCC1=O)c1cnc(N2CCC(Oc3ccccc3)CC2)c(Cl)c1	3.7%
CCCCC(=O)N(CCOC)Cc1ccc(-c2ccc(CNCCC)cn2)cc1	-0%
CC12CCC(C(=O)N(CC(O)Cn3c4ccc(Cl)cc4c4cc(Cl)ccc43)C1=O)C2(C)C (configuration not stated)	0.74%
O=C(/C=C/c1ccc([N+](=O)[O-])cc1)N1CCC(NS(=O)(=O)c2ccc(Br)cc2)CC1	0.74%
O=C(c1cc(C(=O)Nc2ccc(F)cc2)c(=O)n(-c2ccc(F)cc2)c1)c1cc(Cl)ccc1O	6.16%
O=C(Nc1ccc(OC2CCN(Cc3ccc(F)cc3)CC2)cc1)c1cccs1	1.61%
CC(C)CNCc1ccc(-c2ccccc2CNC2CCN(Cc3ccccc3)CC2)cc1	5.84%

Compound	IFI
Cc1cccc2nc(-c3ccc(-c4ccc(NC(=O)c5cncn5C)cc4)s3)[nH]c12	4.5%
O=C(Cc1c[nH]cn1)Nc1ccc(-c2cccc(-c3nc4cc(F)ccc4[nH]3)c2)cc1	2.78%
Cc1ccccc1C1CCN(C2CCC(NC(=O)/C=C/c3cc(F)ccc3F)CC2)CC1 (configuration not stated)	6.67%
CC1CCCN(Cc2c(O)ccc3c(O)c(-c4nc5ccccc5s4)c(=N)oc23)C1 (configuration not stated)	5.31%
CCOc1ccc(Br)cc1/C=C/C(=O)Nc1ccc(C2CCN(C)CC2)cc1	15.5%
CN1CCN(CCCN(Cc2ccc(-c3ccc(CNCc4ccc5c(c4)OCO5)cc3)cc2)C(=O)Nc2ccccc2)CC1	5.11%
O=C(Nc1ccccc1O)c1ccc(S(=O)(=O)c2ccc(Cl)cc2)cc1	0%
COc1ccc(Br)cc1/C=C/C(=O)Nc1ccc(C2CCCN(C)C2)cc1 (configuration not stated)	5.26%
COc1cc2nc(Nc3ccc(N4CCOCC4)cc3)nc(N)c2cc1OC	1.99%
Cc1cc2c(cc1C(F)(F)F)N(C(=O)Nc1cc(C(=O)NC3CCN(Cc4ccccc4)C3)cc(C(F)(F)F)c1)CC2 (configuration not stated)	4.26%
CCN(CCCN1CCCCC1)c1cc(C)nc(Nc2ccc(C)c(C)c2)n1	6.33%
Nc1c2c(nc3ccc(NC(=O)c4ccc([N+](=O)[O-])cc4)cc13)CCCC2	3.7%
COc1cc(Cc2cnc(N)nc2N)cc(OCCCCCCC(=O)O)c1OC	1.39%
CCc1cn(CC(=O)N(CCOc2ccc(-c3ccc(C(F)(F)F)cc3)cc2)CCN(CC)CC)c(SCc2ccc(F)cc2)nc1=O	6.34%
Nc1c(Cl)cc(C(O)CNCCCCCCOCCC=C2CCOCC2)cc1Cl (configuration not stated)	2.86%
CC(C)CCN1CCCN(Cc2cccc(NC(=O)c3ccc(-c4ccccc4)cc3)c2)CC1	5.48%
CC(C)NCc1ccc(-c2cccc(CN3CCC(c4ccccc4)CC3)c2)c(C(=O)NCC2CCCCC2)c1	8.05%
O=C(NCCCCN1CCCC2c3ccc(O)cc3CCC21)c1ccc(-c2ccccc2)cc1 (configuration not stated)	6.87% and 7.63%
CCCN(CCC)C(=S)N/N=C1/C(=O)Nc2ccccc21	4.41%
CC(C)CC1(C(=O)OC(C)(C)C)CC(C(=O)OC(C)(C)C)C(c2cccs2)N1C(=O)c1ccc(C(C)(C)C)cc1 (configuration not stated)	1.47%
O=C(Nc1cccc(N2CCC(NCCCc3ccncc3)CC2)c1)c1cccc(C(F)(F)F)c1	2.38%
O=C(NCCCc1ccccc1)c1ccc(O)c(-c2cc(Cl)cc(Cl)c2)c1	2.96%
CC(C)NCc1ccc(-c2ccc(-c3nc4cc(C(F)(F)F)ccc4[nH]3)cc2)cc1	8.57%

Compound	IFI
CC(C)c1ccc(NC(=O)c2ccc(C(=O)NCC3CCN(CC4CCCCC4)CC3)cc2)cc1	3.48%
CCOc1cc2c(cc1S(=O)(=O)c1ccc(COc3ccc(C(F)(F)F)cc3)cc1)CCN(C)CC2	9.79%
COc1cc(NC(=O)c2sc(-c3ccc(Cl)cc3)cc2NC(=O)CN2CCCC2)ccc1OCCN1CCCC1	7.91%
CCOc1ccc(-c2nonc2NC(=O)c2cccs2)cc1OCC	-0%
CC(C)NCC(=O)Nc1cccc(C(=O)Nc2cccc(C(F)(F)F)c2)c1	2.04%
CC1CCc2sc(-c3nnc(SC(C)C(=O)N4CCCC4)o3)cc2C1 (configuration not stated)	2.04%
O=C(C=Cc1ccc(-c2nc3ccccc3[nH]2)cc1)NC1CCN(Cc2ccccc2)CC1	2.27%
O=C(NOCc1ccccc1)c1cc(Cl)ccc1O	0.72%
COc1ccc(OC)c2c1CCN(CCN1CCC(C(=O)Nc3ccc(C(=O)Nc4ccc(Cl)cc4)cc3)CC1)C2	3.64%
Cn1nccc1C(=O)NCCNCc1cccc(-c2csc(-c3nc4ccccc4[nH]3)c2)c1	3.88%
CC1(C)CCC(C)(C)c2c1ccc(C1CCN(CCCCNC(=O)c3ccc(-c4ccc(Cl)cc4)cc3)CC1)c2O	13.7%
CN(CCCNc1ccc(C(=O)Nc2ccc(C(F)(F)F)cc2)cc1[N+](=O)[O-])Cc1ccccc1	3.7%
CCOC(=O)c1c[nH]c2c(ccc3ccccc32)c1=O	-0%
COc1ccc(Cl)cc1NC(=O)Nc1ccc2c(c1)CCN(C1CCC1)CC2	3.88%
CN(C)CCCn1cncc1-c1ccc2ncnc(Nc3ccc(OCc4ccccc4)cc3)c2c1	4.44%
CN(C)Cc1cccc(CNC(=O)c2sccc2OCc2ccc(Cl)cc2)c1	4.85%
COc1ccccc1C1CC(c2ccccc2)=NN1C(=O)c1ccco1 (configuration not stated)	-0%
Nc1nc(N)c2c(ccc3c2ccn3CCCF)n1	3.74%
COc1ccc(NC(=O)[C@H](Cc2ccccc2)Nc2cc(C)nc(NCCc3ccccc3)n2)cc1	9.09%
COCCOC(=O)C(=O)c1c(-c2ccccc2)c(-c2ccc(OC)c(OC)c2)c2c3cc(OC)c(OC)cc3ccn12	3.45%
CC(C)c1cc(N)c2cc(NC(=O)COCC(=O)Nc3ccc4nc(C(C)C)cc(N)c4c3)ccc2n1	0.73%
CCN1CCC(N(Cc2ccc(-c3ccc(C(F)(F)F)cc3)cc2)C(=O)Cn2c(CCc3cccc(F)c3F)cc(=O)c3c2CCC3)CC1	4.96%
c1csc(-c2nc(NCC3CCCO3)ncc2-c2ccsc2)n1 (configuration not stated)	1.12%
